Data reported in publication PMC4336329 (PLoS ONE, 2015).
About 14,000 (4.5%) of roughly 310,000 compounds showed an effect of 50% or more. Effects have a minus sign here. The list shows a part of the results.

biological target: human ether-à-go-go-related gene (hERG) potassium channel (human, UniProt Q12809); experiment: primary screen, population patch clamp on CHO cells stably expressing hERG
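Also: peak tail current of the secondary pulse compared with the same well before compound.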

Chain of human ether-à-go-go-related gene (hERG) potassium channel (Q12809 whole entry, looked up): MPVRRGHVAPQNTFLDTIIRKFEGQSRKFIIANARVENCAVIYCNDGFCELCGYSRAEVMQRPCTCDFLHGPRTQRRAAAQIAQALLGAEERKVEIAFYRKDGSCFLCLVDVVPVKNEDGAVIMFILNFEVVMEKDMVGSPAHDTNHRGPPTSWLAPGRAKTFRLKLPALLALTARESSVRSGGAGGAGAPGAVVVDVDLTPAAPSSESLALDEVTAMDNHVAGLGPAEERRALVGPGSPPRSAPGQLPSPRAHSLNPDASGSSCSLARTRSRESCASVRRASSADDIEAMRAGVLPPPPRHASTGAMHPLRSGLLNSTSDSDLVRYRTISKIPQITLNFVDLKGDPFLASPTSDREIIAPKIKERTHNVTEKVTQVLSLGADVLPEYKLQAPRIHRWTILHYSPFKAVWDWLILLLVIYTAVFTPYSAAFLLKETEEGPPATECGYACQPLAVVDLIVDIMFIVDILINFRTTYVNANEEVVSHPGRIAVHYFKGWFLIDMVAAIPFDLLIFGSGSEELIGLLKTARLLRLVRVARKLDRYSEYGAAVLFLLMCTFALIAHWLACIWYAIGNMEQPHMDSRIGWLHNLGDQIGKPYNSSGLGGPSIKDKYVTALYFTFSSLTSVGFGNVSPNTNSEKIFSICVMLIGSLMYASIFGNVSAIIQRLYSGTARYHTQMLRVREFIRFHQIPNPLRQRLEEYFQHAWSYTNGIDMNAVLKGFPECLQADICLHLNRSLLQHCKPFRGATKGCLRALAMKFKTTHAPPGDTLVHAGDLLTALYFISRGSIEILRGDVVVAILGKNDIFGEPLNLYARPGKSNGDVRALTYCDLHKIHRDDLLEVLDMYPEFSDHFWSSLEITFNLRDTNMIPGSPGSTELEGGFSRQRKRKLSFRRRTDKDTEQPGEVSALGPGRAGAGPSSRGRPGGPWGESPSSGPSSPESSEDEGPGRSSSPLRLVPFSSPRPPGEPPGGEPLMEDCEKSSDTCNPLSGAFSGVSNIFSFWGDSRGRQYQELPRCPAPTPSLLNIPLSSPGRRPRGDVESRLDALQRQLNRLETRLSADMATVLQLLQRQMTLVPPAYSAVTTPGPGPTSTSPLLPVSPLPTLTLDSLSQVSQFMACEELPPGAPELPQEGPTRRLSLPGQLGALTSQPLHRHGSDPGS

SMILES | hERG current change (%, negative = inhibition) at 10uM [%]
c1ccc(CSc2nnc(Cc3ccccc3)o2)cc1 | 4.99
CN(Cc1ccccc1)C(=O)CN(C1CCCCC1)S(C)(=O)=O | -1.23
COc1cc(NC(=O)COc2cc(O)c3c(c2)OC(C)(C)CC3=O)cc(OC)c1OC | -3.91
CCCNC(=O)c1onc(CSc2ccccn2)c1C(=O)NCCC | 5.19
Cc1ccc(S(=O)(=O)N2CCN(c3nn(C)c(=O)n(C)c3=O)CC2)cc1C | -7.08
Cc1cc(C)cc(N=C2NC(=O)CS2)c1 | 0.159
CN1C(=O)CC(N2CCN(C(=O)c3ccccc3)CC2)C1=O (stereo not drawn) | -1.69
O=C1CCCc2nn(-c3ccccc3)c(-c3ccncc3)c21 | 17.2
O=C(CCS(=O)(=O)c1ccc(Cl)cc1)NCCC1=CCCCC1 | 26.7
COc1ccc(NC(=O)CN(C)C(=O)Cc2n[nH]c(=O)c3ccccc23)cc1 | 20.5
Cl.NCc1ccc2[nH]c(=O)[nH]c2c1 | 12.4
Cc1cccc(C)c1NC(=S)N1CCC(N(C)CC2CCCO2)CC1 (stereo not drawn) | -10.7
Cc1ccc(-n2c(SCC(=O)NCc3ccco3)nnc2-c2cccnc2)cc1 | -60.8
CC1(C)Cn2c(nnc2-c2cccc(O)c2)S1 | 2.7
CCN(CC)S(=O)(=O)c1ccc(N2CCOCC2)c(NC(=O)c2cc3ccccc3oc2=O)c1 | 9.38
O=C1N/C(=N\S(=O)(=O)Cc2ccccc2)S/C1=C/c1cc([N+](=O)[O-])ccc1O | 14.3
CCOc1ccccc1NC(=O)c1cnc2n(c1=O)CCS2 | 6.92
Cc1ccc(C)c(C(=O)CN2C(=O)NC3(CCCCCCC3)C2=O)c1 | 3.92
Cc1cccc(-c2noc(CN(C(=O)CCc3ccccc3)C(C)C)n2)c1 | -1.04

SMILES | hERG current change (%, negative = inhibition) at 10uM [%]
CC(=O)Nc1ccc(C(=O)NCC2CCCCC2)cc1 | 5.18
CN(C)c1nc(N(C)C)n(Cc2c(Cl)cccc2Cl)n1 | 16.2
Cc1nc(NC(=O)C2CCCCC2C(=O)O)sc1C (stereo not drawn) | 12
Cc1cccn2c(=O)c3cc(C(=O)NCC4CCCO4)c(=N)n(CCN4CCOCC4)c3nc12 (stereo not drawn) | -69.4
COCc1[nH]nc2c1C(c1ccccc1F)C(C#N)=C(N)O2 (stereo not drawn) | 11
Cc1csc2nc(CNC(=O)CCC(=O)O)cn12 | 10
CC(C)(C)OC(=O)N1Cc2ccccc2C[C@H]1C(=O)NCC(=O)Nc1ccc2c(c1)OCCO2 | 3.19
O=C(CCCC(=O)N(CC(=O)NC1CCCCC1)CC1CCCO1)Nc1ccccn1 (stereo not drawn) | -5.32
CC(C)C[C@@H](CO)N(Cc1ccccc1)S(=O)(=O)N(Cc1ccccc1)[C@@H](CO)CC(C)C | 7.47
O=C1CCCN1CN(C(=O)c1ccc2c(c1)OCO2)c1cccc(Cl)c1 | -7.64
CN(C)c1nc(OCCOC(=O)c2ccccc2)nc(N(C)C)n1 | -5.99
Cc1ccsc1C(=O)OCC(=O)Nc1c(C)n(C)n(-c2ccccc2)c1=O | -12.5
O=[N+]([O-])c1ccc(/C=N/N2CCCCC2)cc1 | -3.67
O=C(CCC(=O)NC1CCCCCC1)Nc1nnc(C(F)(F)F)s1 | -3.16
COc1ccc(N2CCN(CCCNC(=O)C3CCCN(S(=O)(=O)c4c(C)n[nH]c4C)C3)CC2)cc1 (stereo not drawn) | 8.03
Cc1cc(NC(=O)c2cc3ccccc3o2)ccc1NC(=O)c1ccccc1 | 8.6
O=C(COc1ccc2ccc(=O)oc2c1)NCCCN1CCCC1=O | 5.61
COc1ccc(-c2cc(C(=O)N3CCN(c4cccc(C)c4C)CC3)c3ccccc3n2)cc1OC | 22.9
CCc1nnc(NC(=O)c2ccc(OC)cc2)s1 | 16.4

SMILES | hERG current change (%, negative = inhibition) at 10uM [%]
O=Cc1cccn1-c1ccc2ccccc2c1 | -16.1
N#Cc1ccc2ccn(CC(=O)NCc3ccccc3)c2c1 | -1.22
Cc1ccc(-c2nc3c(c(=O)c4ccccc4n3C)c(=O)n2-c2ccccc2)cc1 | 4.79
C/C(CC(=O)N1CCN(C=O)CC1)=N\NC(=O)c1ccc([N+](=O)[O-])cc1 | 2.24
CCN(CC)S(=O)(=O)c1ccc(NC(=O)c2cc(-c3ccccc3)nc3ccccc23)cc1 | 1.64
CC1(C)C(c2ccccc2)=[N+]([O-])C2(CCCCC2=O)N1O (stereo not drawn) | -0.325
COc1cc(/C=N/NC(=O)c2ccc(N3CCCC3=O)cc2)ccc1O | 27.7
COc1cccc(NC(=O)c2ccc(NC(=O)C(C)(C)C)cc2)c1 | 24.9
Cc1ccccc1CN(C)C1CCN(C)CC1 | 28.2
Cc1nn(-c2ccccc2)c(C)c1C(=O)OCc1ccc(C#N)cc1 | -34.9
CC(=O)Nc1cccc(-c2csc(Nc3cccc(C)n3)n2)c1 | -5.45
COc1ccc(CCNC(=O)NC23CC4CC(CC(C4)C2)C3)cc1OC | 2.84
CC1CCc2c(sc(NC(=O)c3cccs3)c2C(=O)O)C1 (stereo not drawn) | 34.7
Cc1cc(C(=O)OCC(=O)N(CC(C)C)c2c(N)n(Cc3ccccc3)c(=O)[nH]c2=O)c2ccccc2n1 | -9.62
COc1ccccc1NC(=O)COc1ccc(C(=O)OCC(=O)NC(C)(C)C)cc1OC | 3.03
CNS(=O)(=O)c1cc(Nc2ncnc3sccc23)ccc1C | 20.7
Cc1cccc(N2CCN(c3cc(C)nc4nnnn34)CC2C)c1 (stereo not drawn) | -53.1
CCCCNC(=O)CCn1nc(-c2ccc(Cl)cc2)c2ccccc2c1=O | -37.9
CCN(C(=O)CSc1nnc2ccccn12)C1CCS(=O)(=O)C1 (stereo not drawn) | 29.7
